# Experimental data: PubChem BioAssay (Tox21)
# Several values for one entry are separate records, joined by “and”; a condition that tells them apart may be missing. Equal entries are not always repeated. Inconclusive results, whose numbers are uncertain, are shown with a selection of clear calls. For some assays here: A potency beside an inconclusive call is a rough fit, not a confirmed value. Activity calls are given as the source filed them. Unless noted, the call rests on the fitted dose curve; in most records, active means well fitted curve in the direction sought with a large enough effect in the repeat runs; inconclusive means weak or mixed curves; inactive means no such curve, though single readings can be large; an effect the other way counts as inactive or inconclusive.
# How the values were obtained:
# [1] = qHTS assay for small molecule agonists of the antioxidant response element (ARE) signaling pathway (AID 743202; active means well fitted activation curve with a large enough effect in the signal ratio in the repeat runs, not every such curve was filed as active; inconclusive means weak or mixed curves, or effect the other way; inactive means no such curve, though single readings can be large or run the other way; the % refers to the signal ratio; further: on the % scale 0 is the no-effect control and ±100 the full control effect); details: HepG2 ARE-bla reporter, beta-lactamase FRET, 16 h; activation: at 73.3 µM (top of the series) unless noted
# Method in brief: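 ARE-bla HepG2 cells (beta-lactamase reporter under the antioxidant response element), plated 5 hours, then exposed to compounds 16 hours at 37 C. LiveBLAzer B/G FRET substrate added for 2 hours at room temperature; fluorescence intensity read.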
# [2] = qHTS assay to identify small molecule agonists of the AP-1 signaling pathway (AID 1159526; calls by dose curve; further: potency means the concentration at half of the fitted maximal effect; on activation: on the % scale 0 is the no-effect control and ±100 the full control effect); details: ME-180 (cervical carcinoma) AP-1-bla reporter, beta-lactamase FRET ratio, 5 h
# [3] = target: Retinoic acid receptor RXR-alpha (Homo sapiens) (UniProt P19793); assay: qHTS assay to identify small molecule agonists of the RXR signaling pathway (AID 1159527; calls by dose curve; further: nearly all actives have a fitted effect of over 35% in size; further: potency means the concentration at half of the fitted maximal effect); details: HEK293T RXRa-UAS-bla, beta-lactamase ratio, 16 h; activation: at 76.8 µM (top of the series) unless noted
# UniProt P19793, sequence (P19793 whole entry, looked up): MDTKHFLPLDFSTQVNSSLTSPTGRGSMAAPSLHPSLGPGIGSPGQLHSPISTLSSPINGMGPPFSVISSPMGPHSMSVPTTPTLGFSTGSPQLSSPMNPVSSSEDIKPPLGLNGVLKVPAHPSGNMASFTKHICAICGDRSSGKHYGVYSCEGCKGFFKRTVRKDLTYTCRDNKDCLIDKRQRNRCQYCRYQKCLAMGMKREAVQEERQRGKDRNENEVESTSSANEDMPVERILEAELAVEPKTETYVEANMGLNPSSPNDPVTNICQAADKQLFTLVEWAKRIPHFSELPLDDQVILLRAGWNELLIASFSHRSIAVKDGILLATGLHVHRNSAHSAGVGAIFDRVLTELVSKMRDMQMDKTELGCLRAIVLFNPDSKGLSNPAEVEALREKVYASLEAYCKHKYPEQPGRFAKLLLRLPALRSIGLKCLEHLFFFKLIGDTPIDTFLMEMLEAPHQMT
# Method in brief: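 Fluorescence ratio readout (460 vs 530 nm) from GeneBLAzer RXR-alpha HEK 293T cells after 16 hr compound treatment; cells seeded 5 hr beforehand in low-serum, charcoal-stripped medium.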
# [4] = qHTS assay to identify small molecule agonists of H2AX (AID 1224845; active means well fitted activation curve with a large enough effect in the signal ratio in the repeat runs, not every such curve was filed as active; inconclusive means weak or mixed curves; the % refers to the signal ratio; further: potency means the concentration at half of the fitted maximal effect); details: CHO-K1 phospho-H2AX Ser139 HTRF, 3 h; activation (H2AX phosphorylation): at 154 µM (top of the series) unless noted
# Method in brief: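 Wild-type CHO-K1 cells, plated overnight, exposed 3hr at 37C to 15 concentrations (0.76% DMSO final). Lysed, then HTRF anti-pH2AX (S139) cryptate and anti-H2AX-d2 antibodies, 24 hr room temperature; 665/620 nm emission read.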
# [5] = qHTS assay to identify small molecule antagonists of the sonic hedgehog signaling (Shh) pathway (AID 1259369; calls by dose curve; further: potency means the concentration at half of the fitted maximal effect; nearly all actives have a fitted effect of over 45% in size)
# Method in brief: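 For antagonist detection, the reporter line received test compounds together with conditioned medium, incubated 24hr at 37 C, 5% CO2, then luminescence was recorded following 30min room-temperature luciferase reagent incubation.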
# [6] = qHTS assay to identify small molecule agonists of the estrogen receptor beta (ER-beta) signaling pathway - cell viability counter screen (AID 1259380); further: nearly all actives have a fitted effect of over 30% in size; further: potency means the concentration at half of the fitted maximal effect
# Method in brief: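 CellTiter-Glo read, 30 min RT, same wells as bla assay; cells ER-beta-UAS-bla HEK293T; 16 hr compound, 37C; medium 2% charcoal-stripped FBS.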
# [7] = qHTS assay to identify small molecule antagonists of the progesterone receptor (PR) signaling pathway - cell viability counter screen (AID 1346798); further: nearly all actives have a fitted effect of over 50% in size; further: potency means the concentration at half of the fitted maximal effect
# Method in brief: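 ATP content as viability readout: CellTiter-Glo luminescence, 30 min room temperature, in PR-UAS-bla HEK293T cells after 16 hr compound/R5020 treatment at 37C and 5% CO2.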
# [8] = qHTS assay to identify small molecule agonists of the progesterone receptor (PR) signaling pathway - cell viability counter screen (AID 1346799; calls by dose curve; further: on the % scale 0 is the no-effect control and ±100 the full control effect; nearly all actives have a fitted effect of over 45% in size)
# Method in brief: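 Cytotoxicity in PR-bla HEK293T cells: 16 h compound, 37C; CellTiter-Glo added post-FRET read; luminescence after 30 min RT.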
# [9] = qHTS assay for small molecule disruptors of the mitochondrial membrane potential (AID 720635); details: HepG2 mitochondrial membrane potential, Mito-MPS dye ratio; ratio activity, negative = MMP loss: at 83.2 µM (top of the series) unless noted; further: on the % scale 0 is the no-effect control and ±100 the full control effect
# Method in brief: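 HepG2 cells exposed to compound 1 hr at 37C, then Mito-MPS dye 30 min. Ratio read of aggregate (540/590 nm) versus monomer (490/535 nm) fluorescence.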
# [10] = qHTS assay for identifying genotoxic compounds that show differential cytotoxicity against isogenic chicken DT40 cell lines with known DNA damage response pathways - Rev3 mutant cell line (AID 743014); details: chicken DT40 Rev3-/- viability, CellTiter-Glo, 40 h; activity, negative = cytotoxicity: at 68.4 µM (top of the series); further: nearly all actives have a fitted effect of over 55% in size; further: potency means the concentration at half of the fitted maximal effect
# [11] = qHTS assay to identify small molecule agonists of the AP-1 signaling pathway - cell viability counter screen (AID 1159525; calls by dose curve; further: nearly all actives have a fitted effect of over 55% in size; further: potency means the concentration at half of the fitted maximal effect)
# Method in brief: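 AP-1-bla ME-180 cells in Opti-MEM with 0.5% dialyzed FBS, compound exposure 5 h at 37 C in 15-point titration. Viability read in the same wells as ATP content by CellTiter-Glo luminescence, normalised to tetra-n-octylammonium bromide and DMSO controls.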
# [12] = target: Estrogen receptor beta (Homo sapiens) (UniProt Q92731); assay: qHTS assay to identify small molecule antagonists of the estrogen receptor beta (ER-beta) signaling pathway (AID 1259378; active means well fitted inhibition curve with a large enough effect in the signal ratio in the repeat runs, not every such curve was filed as active; inconclusive means weak or mixed curves, or effect the other way; inactive means no such curve, though single readings can be large or run the other way; the % refers to the signal ratio; further: potency means the concentration at half of the fitted maximal effect); details: ER-beta-UAS-bla HEK293T, beta-lactamase FRET ratio, 16 h; activity, negative = inhibition: at 92.4 µM (top of the series) unless noted
# UniProt Q92731, sequence (Q92731 whole entry, looked up): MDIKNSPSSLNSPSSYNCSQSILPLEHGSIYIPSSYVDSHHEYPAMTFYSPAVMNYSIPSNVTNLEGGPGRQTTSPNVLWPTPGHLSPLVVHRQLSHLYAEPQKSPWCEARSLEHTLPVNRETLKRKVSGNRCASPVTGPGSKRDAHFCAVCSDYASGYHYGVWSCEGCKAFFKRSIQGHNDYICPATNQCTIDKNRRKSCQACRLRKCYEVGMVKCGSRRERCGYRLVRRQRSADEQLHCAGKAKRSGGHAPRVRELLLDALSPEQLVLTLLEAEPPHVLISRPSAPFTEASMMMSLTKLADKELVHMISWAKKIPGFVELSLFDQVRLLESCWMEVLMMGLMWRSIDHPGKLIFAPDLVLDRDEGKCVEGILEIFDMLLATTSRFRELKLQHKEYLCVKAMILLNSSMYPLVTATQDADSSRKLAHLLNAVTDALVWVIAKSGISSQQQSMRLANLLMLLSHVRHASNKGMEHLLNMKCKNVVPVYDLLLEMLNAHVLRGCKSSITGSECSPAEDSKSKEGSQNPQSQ
# Method in brief: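 ER-beta-UAS-bla HEK293T cells in 2% charcoal-stripped FBS medium treated with compound plus 1nM final 17-beta-estradiol for 16 hr at 37C. Beta-lactamase reporter read by FRET substrate fluorescence after 2 hours at room temperature.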
# [13] = qHTS assay to identify small molecule antagonists of the thyroid receptor (TR) signaling pathway - cell viability counter screen (AID 743064); details: GH3.TRE-Luc viability, CellTiter-Fluor, 24 h; activity change, negative = cytotoxic: at 70.3 µM (top of the series) unless noted; further: potency means the concentration at half of the fitted maximal effect; nearly all actives have a fitted effect of over 50% in size
# Method in brief: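 Counter screen for cytotoxicity: compound plus T3 (1 nM final) on GH3.TRE-Luc cells, 23.5 h at 37 °C, then fluorescence viability readout with CellTiter-Fluor.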
# [14] = target: Peroxisome proliferator-activated receptor gamma (Homo sapiens) (UniProt P37231); assay: qHTS assay to identify small molecule antagonists of the peroxisome proliferator-activated receptor gamma (PPARg) signaling pathway (AID 743191; calls by dose curve; further: on the % scale 0 is the no-effect control and ±100 the full control effect; nearly all actives have a fitted effect of over 30% in size); details: HEK293H PPARg-UAS-bla, beta-lactamase ratio, antagonist, 17 h; ratio activity, negative = inhibition: at 62.6 µM (top of the series) unless noted
# UniProt P37231, sequence (P37231 whole entry, looked up): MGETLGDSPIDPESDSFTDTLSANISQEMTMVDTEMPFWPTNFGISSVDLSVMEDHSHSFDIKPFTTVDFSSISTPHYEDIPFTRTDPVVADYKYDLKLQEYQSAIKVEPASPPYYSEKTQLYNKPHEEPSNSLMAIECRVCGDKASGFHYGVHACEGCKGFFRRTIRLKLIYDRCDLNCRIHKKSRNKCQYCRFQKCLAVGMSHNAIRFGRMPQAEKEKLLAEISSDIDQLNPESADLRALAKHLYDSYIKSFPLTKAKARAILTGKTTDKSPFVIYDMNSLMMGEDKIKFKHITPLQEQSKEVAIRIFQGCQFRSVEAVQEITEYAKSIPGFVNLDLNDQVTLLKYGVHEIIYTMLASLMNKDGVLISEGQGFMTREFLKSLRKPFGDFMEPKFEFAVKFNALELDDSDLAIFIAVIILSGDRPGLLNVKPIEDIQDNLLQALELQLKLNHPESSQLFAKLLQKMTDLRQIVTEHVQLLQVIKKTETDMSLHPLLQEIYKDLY
# Method in brief: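 GeneBLAzer PPARg UAS-bla HEK293H cells, 5 h post-plating, exposed to compounds 17 h at 37C. LiveBLAzer B/G FRET substrate added for 1 h at room temperature; beta-lactamase reporter read by fluorescence intensity.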
# [15] = target: Vitamin D3 receptor (Homo sapiens) (UniProt P11473); assay: qHTS assay to identify small molecule antagonists of the vitamin D receptor (VDR) signaling pathway (AID 743223; active means well fitted inhibition curve with a large enough effect in the signal ratio in the repeat runs, not every such curve was filed as active; inconclusive means weak or mixed curves, or effect the other way; inactive means no such curve, though single readings can be large or run the other way; the % refers to the signal ratio; further: on the % scale 0 is the no-effect control and ±100 the full control effect); details: VDR-UAS-bla HEK293T, beta-lactamase FRET ratio, 16 h; activity change, negative = inhibition: at 61 µM (top of the series) unless noted
# UniProt P11473, sequence (P11473 whole entry, looked up): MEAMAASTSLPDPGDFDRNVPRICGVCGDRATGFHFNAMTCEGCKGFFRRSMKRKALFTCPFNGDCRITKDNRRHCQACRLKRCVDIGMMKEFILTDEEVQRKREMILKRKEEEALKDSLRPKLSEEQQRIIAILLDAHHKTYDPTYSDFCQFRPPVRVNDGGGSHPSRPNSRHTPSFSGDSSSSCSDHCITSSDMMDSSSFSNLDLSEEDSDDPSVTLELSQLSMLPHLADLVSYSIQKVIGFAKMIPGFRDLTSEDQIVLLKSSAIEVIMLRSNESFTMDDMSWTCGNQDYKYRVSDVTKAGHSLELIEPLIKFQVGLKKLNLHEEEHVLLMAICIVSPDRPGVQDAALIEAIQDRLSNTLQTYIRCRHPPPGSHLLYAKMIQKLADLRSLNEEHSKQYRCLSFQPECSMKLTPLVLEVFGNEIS
# Method in brief: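 Beta-lactamase activity in VDR-bla cells is measured by FRET substrate fluorescence (2 h, room temperature) after cells spend 16 h at 37C with test compound and 3 nM final 1alpha,25-dihydroxyvitamin D3.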
# [16] = target: Cytochrome P450 1A2 (Homo sapiens) (UniProt P05177); assay: Cytochrome P450 Family 1 Subfamily A Member 2 (CYP1A2) small molecule antagonists: luciferase reporter qHTS assay (AID 1671199); further: on the % scale 0 is the no-effect control and ±100 the full control effect; nearly all actives have a fitted effect of over 50% in size
# UniProt P05177, sequence (P05177 whole entry, looked up): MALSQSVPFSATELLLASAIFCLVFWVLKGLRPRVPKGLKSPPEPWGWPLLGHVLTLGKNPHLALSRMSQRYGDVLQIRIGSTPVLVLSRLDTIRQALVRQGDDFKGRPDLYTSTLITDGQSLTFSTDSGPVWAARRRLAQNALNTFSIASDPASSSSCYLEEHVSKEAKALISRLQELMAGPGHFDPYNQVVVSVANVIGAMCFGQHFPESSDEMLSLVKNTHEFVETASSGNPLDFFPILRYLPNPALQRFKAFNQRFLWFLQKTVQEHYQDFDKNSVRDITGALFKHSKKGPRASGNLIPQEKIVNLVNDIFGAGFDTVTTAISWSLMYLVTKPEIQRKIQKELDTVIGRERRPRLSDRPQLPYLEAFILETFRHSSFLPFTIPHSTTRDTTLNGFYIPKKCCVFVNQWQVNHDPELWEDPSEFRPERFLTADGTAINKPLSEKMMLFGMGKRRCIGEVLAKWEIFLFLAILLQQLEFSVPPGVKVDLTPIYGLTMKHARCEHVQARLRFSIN
# Method in brief: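 Enzymatic CYP1A2 assay, human, luminescent: 10 min compound–enzyme–substrate preincubation, 1 h NADPH-dependent turnover, 20 min detection step, room temperature throughout. Reduced light indicates lower CYP1A2 activity.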
# [17] = target: Progesterone receptor (Homo sapiens) (UniProt P06401); assay: qHTS assay to identify small molecule antagonists of the progesterone receptor (PR) signaling pathway (AID 1346795; active means well fitted inhibition curve with a large enough effect in the signal ratio in the repeat runs, not every such curve was filed as active; inconclusive means weak or mixed curves; the % refers to the signal ratio; further: potency means the concentration at half of the fitted maximal effect); details: PR-UAS-bla HEK293T, beta-lactamase FRET ratio, 16 h; activity change, negative = inhibition: at 92.4 µM (top of the series) unless noted
# UniProt P06401, sequence (P06401 whole entry, looked up): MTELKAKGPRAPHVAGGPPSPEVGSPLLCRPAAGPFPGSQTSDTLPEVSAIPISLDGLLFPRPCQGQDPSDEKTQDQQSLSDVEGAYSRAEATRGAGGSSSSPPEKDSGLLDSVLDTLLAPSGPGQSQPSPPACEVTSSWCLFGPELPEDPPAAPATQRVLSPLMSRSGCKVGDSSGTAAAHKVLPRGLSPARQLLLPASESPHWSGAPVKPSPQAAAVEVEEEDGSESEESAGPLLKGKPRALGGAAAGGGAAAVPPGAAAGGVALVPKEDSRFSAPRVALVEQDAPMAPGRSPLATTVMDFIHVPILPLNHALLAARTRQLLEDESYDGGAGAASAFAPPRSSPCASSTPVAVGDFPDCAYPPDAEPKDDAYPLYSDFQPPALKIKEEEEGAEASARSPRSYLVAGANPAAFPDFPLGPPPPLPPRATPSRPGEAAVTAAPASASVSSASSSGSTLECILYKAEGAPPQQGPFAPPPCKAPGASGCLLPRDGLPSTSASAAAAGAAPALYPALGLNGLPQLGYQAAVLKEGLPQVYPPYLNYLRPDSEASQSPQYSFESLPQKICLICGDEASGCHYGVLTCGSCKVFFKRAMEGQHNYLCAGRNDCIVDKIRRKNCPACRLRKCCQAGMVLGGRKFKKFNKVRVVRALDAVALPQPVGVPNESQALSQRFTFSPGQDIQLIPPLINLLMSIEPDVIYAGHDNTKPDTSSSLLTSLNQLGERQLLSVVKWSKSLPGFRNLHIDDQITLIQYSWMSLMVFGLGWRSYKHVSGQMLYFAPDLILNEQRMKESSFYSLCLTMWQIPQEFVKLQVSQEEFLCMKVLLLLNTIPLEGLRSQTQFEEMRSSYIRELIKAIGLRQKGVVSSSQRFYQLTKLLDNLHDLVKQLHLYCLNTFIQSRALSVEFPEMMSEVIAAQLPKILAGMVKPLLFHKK
# Method in brief: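 Inhibition of R5020-induced (1 nM final) beta-lactamase reporter signal in PR-UAS-bla HEK293T cells was scored by FRET fluorescence after overnight (16 hr) compound treatment.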
# [18] = activation: at 76.8 µM (top of the series) unless noted
# Tags describe the fitted curve by direction and shape or compound fluorescence and quenching.
smiles,measurement,setting,value
C1CC2OC2CC1C1CO1 (stereo not given),activation,[1],inconclusive: 18.7%
same,activation,[2]; [18],inconclusive: 10.7%
same,activation,[2]; at 76.8 µM (top of the series),inactive: -0.0534%
same,activation,[3],inconclusive: 15.7%
same,Potency,[4],inactive
same,Potency,[5],"inconclusive: 47.7 µM [inhibitor, partial curve, poor fit]"
same,Potency,[6],inactive
same,Potency,[7],"inconclusive: 30.6 µM [cytotoxic, partial curve, poor fit]"
same,Potency,[8],inactive
Nc1ccc(Oc2ccc(N)cc2)cc1,Potency,[9],inactive
same,Potency,[10],"inconclusive: 54.5 µM [cytotoxic, partial curve]"
same,activation,[1],inconclusive: 18.2% [at 94.8 µM]
same,Potency,[11],"inconclusive: 54.9 µM [rising, partial curve, poor fit]"
same,Potency,[3],inactive and inconclusive: 54.9 µM [activator]
same,Potency,[12],"inconclusive: 43.9 µM [rising, partial curve, poor fit]"
same,"activity, negative = inhibition",[12],inconclusive: -26.7%
same,Potency,[6],"inconclusive: 39.1 µM [cytotoxic, partial curve] and inconclusive: 13.7 µM [cytotoxic]"
same,Potency,[7],inactive
CCOC(=O)NC(O)C(Cl)(Cl)Cl (stereo not given),Potency,[9],inactive
same,Potency,[13],"inconclusive: 9.44 µM [rising, partial curve, poor fit]"
same,"ratio activity, negative = inhibition",[14],inconclusive: 17.5%
same,"activity change, negative = inhibition",[15],inconclusive: 7.51%
same,Potency,[11],inactive
same,Potency,[3],inactive
same,Potency,[16],inactive
COC(=O)COc1ccc(Cl)cc1Cl,"ratio activity, negative = MMP loss",[9],inconclusive: 10.8%
same,Potency,[10],inactive
same,Potency,[11],"inconclusive: 0.0012 µM [rising, full curve, poor fit]"
same,Potency,[5],"inconclusive: 10.9 µM [inhibitor, single point]"
ClC(Cl)=C(c1ccc(Cl)cc1)c1ccccc1Cl,Potency,[2]; [18],inconclusive: 49 µM
same,Potency,[3],"inconclusive: 54.9 µM [cytotoxic, single point]"
same,Potency,[4],"inconclusive: 127 µM [activator, single point]"
same,Potency,[12],active: 6.86 µM
same,Potency,[6],"inconclusive: 43.3 µM [cytotoxic, partial curve]"
same,Potency,[17],"inconclusive: 8.63 µM [rising, full curve]"
